# Experimental data taken from PubChem BioAssay AID651687 (Broad Institute, 2012).
# Screen size: about 350,000 compounds; about 600 (0.17%) were called active. Inconclusive results, whose numbers are uncertain, are shown with a selection of clear calls.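 The calls were made as follows: active = every replicate shows inhibition of at least 40%; inconclusive = mean inhibition at least 40% but some replicate below; inactive = the rest.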
# Experiment: inhibitors of PGC1a acetylation signal, primary screen, cell-based, U2OS, AlphaScreen, inhibitor mode (AID 651687);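 also: 0% = neutral control wells and 100% = positive control wells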
# Conditions: AlphaScreen anti-acetyl-lysine, at 15.6 µM, stronger effect = higher value, with virally co-expressed GCN5 acetyltransferase
row,Structure (SMILES),inhibition
1,C[C@H](O)C#Cc1cnc2c(c1)C(=O)N([C@H](C)CO)C[C@H](C)[C@H](CN(C)C(=O)c1ccccc1F)O2,inactive: 12.7%
2,CC1(C)CC(=O)C(N=Nc2cc(Cl)c(Cl)c(Cl)c2)=C(O)C1,inconclusive: 48%
3,CCn1c(=N)n(CC(=O)c2ccc(Br)s2)c2ccccc21,inactive: -2.17%
4,O=C(Nc1nc2ccccc2[nH]1)c1ccc(Cl)c(S(=O)(=O)N2CCCC2)c1,inconclusive: 52.5%
5,Cc1c(C(=O)N2CCN(c3ccccn3)CC2)sc2ncnc(N3CCN(c4ccccc4)CC3)c12,inconclusive: 40.3%
6,O=C(c1cc(Cl)ccc1Cl)N1CCc2ccccc21,inconclusive: 42.7%
7,CCCCN(c1ccccc1)c1ncnc(N)c1[N+](=O)[O-],active: 52%
8,C[C@H](CO)N1C[C@H](C)[C@H](CN(C)S(=O)(=O)c2cn(C)cn2)OCCCC[C@H](C)Oc2ccc(NC(=O)Nc3cccc4ccccc34)cc2C1=O,inconclusive: 52.5%
9,Cc1ccc(-c2c[n+](CC(=O)c3cccs3)c3n2CCC3)cc1,inactive: 9.9%
10,COc1ccc(-c2cc(C(=O)N/N=C/c3cc(OC)c(OC)cc3OC)c3ccccc3n2)cc1,active: 45.2%
11,COc1ccc(/C=N/NC(=O)c2cccnc2)cc1CN1CCOCC1,inconclusive: 42.4%
12,O=C1C=C(c2c(O)ccc3ccccc23)c2ccccc2C1=O,active: 54.1%
13,O=C1C(Nc2ccccc2)=C/C(=N/S(=O)(=O)c2cccs2)c2ccccc21,active: 59.3%
14,O=C(CN1CCOCC1)N[C@H]1CC[C@H](CCNC(=O)Nc2cc(F)ccc2F)O[C@H]1CO,inconclusive: 52.9%
15,CC(C)NC(=O)N(C)C[C@H]1OCCCC[C@@H](C)Oc2ccc(NC(=O)Nc3ccc(C(F)(F)F)cc3)cc2C(=O)N([C@H](C)CO)C[C@@H]1C,inconclusive: 50.3%
16,O=C1C=CCCN1C(=O)/C=C/c1cccc(Br)c1,active: 46.4%
17,O=C(O)CCC(NC(=S)Nc1ccccc1)C(=O)O (centres undefined),inconclusive: 73.1%
18,CCCCCCNC(=O)O[C@@]12CN(S(=O)(=O)c3ccc(C)cc3)C[C@]1(O)Cn1c(=O)n(CCCCCC)c(=O)n1C2,active: 68.9%
19,Cc1ccc(S(=O)(=O)N[C@@H]2CC[C@@H](CCNC(=O)c3ccccc3F)O[C@H]2CO)cc1,inconclusive: 49.3%
20,O=C(C[C@@H]1CC[C@@H](NC(=O)C2CCOCC2)[C@@H](CO)O1)NCc1ccncc1,inactive: 4%
21,CCC(=O)N(CC)c1nc(-c2ccc(OC)cc2)cs1,active: 47.8%
22,Cc1ccc(-c2c[n+](CC(=O)Nc3ccccc3)c3n2CCC3)cc1,active: 43.3%
23,CC(=O)N1CCN(C(C)=O)C1c1ccccc1,inconclusive: 46.7%
24,CN(C)CCCNC(=O)C[C@H]1CC[C@@H](NS(=O)(=O)c2ccccc2)[C@@H](CO)O1,inactive: -1.64%
25,CC1CN(S(=O)(=O)c2cccc(C(=O)NCCCn3ccnc3)c2)CC(C)O1 (centres undefined),inactive: -12.6%
26,CCOC(=O)c1ccc2[nH]c(C)c(CN3CCN(C)CC3)c(=O)c2c1,active: 59.3%
27,CSCC(=O)N1CCCC(CO)(Cc2ccccc2C)C1 (centres undefined),active: 109%

row,Structure (SMILES),inhibition
1,CC1CCCCC1NC(=O)C1CCN(C(=O)NC2CCCCC2)CC1 (centres undefined),inconclusive: 51.2%
2,Cc1ccc(CNn2cnnc2SCC(=O)NC(C)(C)C)cc1,inconclusive: 42.4%
3,CO[C@@H]1CN(C)C(=O)c2cc(NC(=O)NC(C)C)ccc2OC[C@H](C)N(Cc2ccc(-c3ccccn3)cc2)C[C@@H]1C,inactive: 3.59%
4,C/C(=N/OC(=O)c1ccccc1Br)c1ccc(C)cc1,inactive: 4.3%
5,CO[C@@H]1CN(C)C(=O)c2cc(NC(C)=O)ccc2OC[C@H](C)N(C(=O)c2cccnc2)C[C@H]1C,inconclusive: 48.6%
6,CO[C@@H](CN(C)S(=O)(=O)c1cn(C)cn1)[C@@H](C)CN(C(=O)Nc1ccc(F)cc1)[C@@H](C)CO,inactive: 10.3%
7,CCCn1cnc2cc(NC(=O)c3cccs3)ccc21,inactive: 17.3%
8,CCCNC(=O)Nc1ccc2c(c1)C(=O)N(C)C[C@H](OC)[C@H](C)CN(CC1CCCC1)[C@@H](C)CO2,active: 43.9%
9,CCCCn1c(SCC(=O)NCc2ccc3c(c2)OCO3)nnc1C(CC)N(C)C (centres undefined),active: 43.7%
10,Cc1cc(C)n(CCc2nc(-c3ccco3)cs2)n1,inactive: -30.5%
11,Cc1cc(=O)[nH]c(SCC(=O)N2CCc3ccccc3C2)n1,inconclusive: 51.8%
12,NC(=O)NC(=O)CSc1nc(-c2ccccc2)c(-c2ccccc2)n1CC1CCCO1 (centres undefined),inactive: 1.34%
13,O=C(c1nc2nc(-c3ccccc3)cc(C(F)(F)F)n2n1)N1CCCCC1,inconclusive: 41.1%
14,O=C(Oc1ccc(-c2nccc(-c3ccccn3)n2)cc1)c1cccc(C(F)(F)F)c1,inactive: -4.83%
15,Cc1cnc2c(C(=O)O)cnn2c1,inconclusive: 52.3%
16,Cc1nc2[nH]c(=O)c3c(n2n1)NC1=C(C(=O)CC(C)(C)C1)C3c1ccccc1 (centres undefined),active: 83.6%
17,Cc1ccc(/C=C2/CNC/C(=C/c3ccc(C)cc3)C2=O)cc1,active: 74.2%
18,COc1ccc(-c2cnc3c(c2)C(=O)N([C@H](C)CO)C[C@@H](C)[C@H](CN(C)C(=O)C2CCC2)O3)cc1,inconclusive: 55.5%
19,CCCCOc1ccc(CNC(=O)NS(=O)(=O)c2ccc(OCC(C)C)cc2)cc1,inconclusive: 48.9%
20,C[C@@H]1CN([C@H](C)CO)C(=O)c2cccc(NC(=O)c3ccc(-c4nccs4)cc3)c2O[C@@H]1CN(C)Cc1ccc(C(=O)Nc2ccccc2N)cc1,inconclusive: 51.1%
21,O=C(Nc1ccccc1N1CCOCC1)C1(c2ccc(Cl)cc2)CCC1,active: 40.7%
22,COc1ccc(Nc2nc(NCc3ccco3)nc(N/N=C/c3ccc(O)cc3)n2)cc1,inactive: -4.59%
23,CC(C)NC(=O)Nc1ccc2c(c1)C(=O)N([C@@H](C)CO)C[C@H](C)[C@@H](CN(C)C(=O)CCC(F)(F)F)OCCCC[C@@H](C)O2,inconclusive: 45.6%
24,Cc1nn(-c2ccccc2)c(Cl)c1C(=O)N1CCN(c2ncnc3c2cnn3-c2ccccc2)CC1,inconclusive: 58.9%
25,C[C@@H]1CN([C@@H](C)CO)C(=O)CCCn2cc(nn2)CO[C@H]1CN(C)C(=O)Cc1ccccc1,inconclusive: 56.4%
26,COc1ccc(NC(=O)CN(C)C(=O)c2cnc(Cl)c(Cl)c2)cc1,inconclusive: 43.7%
27,O=c1cc(CSc2ccccn2)[nH]c(=O)[nH]1,inconclusive: 44.4%

row,Structure (SMILES),inhibition
1,COc1ccc(CCNC(=O)C(=O)NCC2CCCO2)cc1OC (centres undefined),inconclusive: 44%
2,CC(=O)Nc1ccc2c(CSc3nncs3)cc(=O)oc2c1,inconclusive: 46.9%
3,Cc1ccc(-n2cccc2C(=S)N=P(N(C)C)(N(C)C)N(C)C)cc1,active: 84.8%
4,C[C@H](CO)N1C[C@H](C)[C@H](CN(C)C(=O)CN(C)C)Oc2cc(-c3cncnc3)ccc2S1(=O)=O,inconclusive: 52.4%
5,O=C1CN(S(=O)(=O)c2ccccc2)C[C@H]2[C@@H](c3ccc(C#Cc4ccccc4)cc3)[C@H](CO)N12,inactive: -12.4%
6,COc1ccc(NC(=O)CN(C)CC(=O)Nc2sc3c(c2C(N)=O)CCC3)cc1,inactive: -8.83%
7,CCn1c(Oc2ccccc2F)nc2c1c(=O)n(C)c(=O)n2C,inconclusive: 40.4%
8,CCCN1C[C@H](C)[C@H](OC)CN(C)C(=O)c2cc(NC(=O)COC)ccc2OC[C@H]1C,inactive: 3.24%
9,CCCn1c(=O)c2ccccc2n2c(SCc3c(C(=O)OCC)oc4ccccc34)nnc12,inconclusive: 41.8%
10,Cc1nn(-c2ccccc2)c(Cl)c1C(=O)NCC(=O)O,inactive: 12.3%
11,O=C(CCC1CCCCC1)NCc1cccs1,inconclusive: 40.6%
12,Cc1noc(C)c1NC(=O)N(C)C[C@@H]1OCCCC[C@@H](C)Oc2ccc(N(C)C)cc2C(=O)N([C@@H](C)CO)C[C@H]1C,inconclusive: 59.1%
13,COc1ccc(C[C@@H]2OC3(C=CC(=O)C=C3)O[C@H]2Cc2ccc(OC)cc2)cc1,active: 90%
14,COc1ccc(NC(=O)N[C@H]2CC[C@H](CCn3cc(-c4ccccc4F)nn3)O[C@@H]2CO)cc1,active: 69.1%
15,CS(=O)(=O)c1nc(-c2ccccc2)cc(C(F)(F)F)n1,inconclusive: 64.3%
16,Cc1noc(C)c1NC(=O)N(C)C[C@@H]1Oc2ccc(N(C)C)cc2CC(=O)N([C@H](C)CO)C[C@H]1C,inactive: -0.609%
17,CC(C)c1ccc(NC(=O)c2snc3ccc(Cl)cc23)cc1,inactive: -5.13%
18,CC(C)C#Cc1ccc([C@@H]2[C@H](CO)N3C(=O)CN(C(=O)NC4CCCC4)C[C@@H]23)cc1,active: 107%
19,CO[C@@H]1CN(C)C(=O)c2cc(NC(=O)C3CCOCC3)ccc2OC[C@@H](C)N(Cc2cccnc2)C[C@@H]1C,inactive: -6.92%
20,CCOc1ccc(S(N)(=O)=O)cc1-c1nc2c(C(C)(C)C)nn(C)c2c(=O)[nH]1,inconclusive: 49.6%
21,CCCCN(C)C1CCN(C(=S)Nc2cccc(OC)c2)CC1,inconclusive: 51.6%
22,C[C@@H]1CN([C@H](C)CO)C(=O)c2cc(C3=CCCCC3)cnc2O[C@@H]1CN(C)Cc1ccccc1,inconclusive: 43.8%
23,O=C(N/N=C/c1ccc(F)cc1)c1c(O)c2ccccc2[nH]c1=O,inconclusive: 45.2%
24,CSc1nsc(SC)c1NC(=O)Nc1ccccc1C,active: 103%
25,C=CCN(c1ccc(C(=O)Nc2ccc3c(c2)OCO3)cc1)S(C)(=O)=O,active: 92.7%
